The whole screen tested about 110,000 compounds, of which about 230 (0.21%) showed an effect of 50% or more. Some of the results follow.
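Note: 30 min substrate incubation versus DMSO and 10 µM JCP410 controls.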

The target in the assay is DPAP1 (Plasmodium falciparum, UniProt Q8IIJ9). As to the kind of experiment: primary screen, percent inhibition; read by cleavage of a fluorogenic dipeptide substrate; higher = more effect of the substance. Further details: species or system P. falciparum D10 trophozoite lysates; single well.
Sequence of DPAP1 (Q8IIJ9 whole entry, looked up): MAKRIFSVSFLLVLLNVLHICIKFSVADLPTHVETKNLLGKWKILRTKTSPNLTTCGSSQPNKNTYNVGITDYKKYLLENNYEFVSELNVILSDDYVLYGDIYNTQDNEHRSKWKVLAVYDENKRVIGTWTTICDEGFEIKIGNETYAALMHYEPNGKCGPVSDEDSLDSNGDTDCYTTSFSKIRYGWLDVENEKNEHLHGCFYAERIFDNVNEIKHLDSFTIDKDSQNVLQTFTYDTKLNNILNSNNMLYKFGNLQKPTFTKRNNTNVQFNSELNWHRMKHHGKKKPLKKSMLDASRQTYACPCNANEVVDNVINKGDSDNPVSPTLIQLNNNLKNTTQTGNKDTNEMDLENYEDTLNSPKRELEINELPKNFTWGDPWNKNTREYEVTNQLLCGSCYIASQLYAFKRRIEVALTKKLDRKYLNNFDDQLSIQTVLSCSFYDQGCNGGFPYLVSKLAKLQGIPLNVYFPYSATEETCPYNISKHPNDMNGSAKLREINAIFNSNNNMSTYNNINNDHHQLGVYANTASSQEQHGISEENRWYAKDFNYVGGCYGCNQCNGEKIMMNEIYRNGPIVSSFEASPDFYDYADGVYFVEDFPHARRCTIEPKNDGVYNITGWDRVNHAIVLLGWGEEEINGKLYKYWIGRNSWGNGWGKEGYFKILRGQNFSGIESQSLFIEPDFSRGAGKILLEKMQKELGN
For `CCOC(=O)C1=C(C)N=c2s/c(=C\c3ccc(O)cc3)c(=O)n2C1c1ccc(Cl)cc1` (stereo not shown), the “% Inhibition @ 10 uM” value is listed as -3.44%.
Next, `CCOC(=O)C1=C(C)N=c2s/c(=C/C=C\c3ccccc3)c(=O)n2C1c1cccs1` (stereo not shown): 1.25%.
The same measure for `OCc1cccc[n+]1Cc1ccccc1`: 2.7%; for `CCCC(=O)Nc1c2c(nn1-c1ccc(F)cc1)CS(=O)(=O)C2`: -1.91%.
Next, `CCc1ccc(-n2nnc(-c3nsc(NC(=O)c4ccccc4C)n3)c2C)cc1`: -0.656%.
Regarding `CC(C)NC(=O)Cc1ccc(-n2c(-c3ccccc3)nc3cccnc32)cc1`, the “% Inhibition @ 10 uM” value was determined as 3.64%.
The same measure for `Cc1noc(C)c1S(=O)(=O)N1CCN(C)CC1`: 1.72%; for `CCCCNC(=O)NC(C)C12CC3CC(CC(C3)C1)C2` (stereo not shown): -2.55%; for `Cc1oc(-c2ccccc2F)nc1CSCC(=O)NCc1ccccc1Cl`: 0.689%.
The same measure for `CCC(=O)N1CC(=O)Nc2ccc(Br)cc2C1c1ccccc1` (stereo not shown): -3.48%.
Turning to `CCc1c2c(n(C)c1-c1ccccc1)C(c1ccccc1)Oc1ccccc1-2` (stereo not shown), the “% Inhibition @ 10 uM” value is listed as -3.63%.
Next, `CCN(Cc1ccccc1)S(=O)(=O)c1c(C)cc(C)cc1C`: -3.27%; `Cc1noc(C)c1S(=O)(=O)N1CCCC(C(=O)NC2CCCCCC2)C1` (stereo not shown): -4.69%.
In the case of `CCc1ccc(-n2nnc(-c3nc(-c4ccncc4)no3)c2N)cc1`, the “% Inhibition @ 10 uM” value is 3.73%.
Next, `COc1ccc(NC(=O)NC23CC4CC(CC(C4)C2)C3)c(C)c1`: 2.92%; `Cc1cc(C(F)F)n2ncc(C(=O)NCCc3ccc(Cl)cc3)c2n1`: -2.75%.
The same measure for `CCn1c(SCCc2ccccc2)nc2c1c(=O)[nH]c(=O)n2C`: 0.851%; for `CC1CCc2c(sc(NC(=O)CSc3ncccn3)c2C#N)C1` (stereo not shown): -0.25%.
Next, `CC(C)C(=O)N1CCN(c2ccc(NC(=O)c3cccnc3Cl)cc2)CC1`: -4.12%; `Cc1ccc(NC(=O)c2sc3nc4c(cc3c2N)CCC4)cc1`: 1.15%; `O=C(Nc1ccn(-c2ccccc2)n1)C12CC3CC(CC(C3)C1)C2`: -1.05%.
On to `COC(=O)c1ccc(-c2ccccc2)s1`, for which the “% Inhibition @ 10 uM” value is given as -5.81%.
Next, `CN1C(=O)c2ccccc2C(C(=O)NCCN2CCOCC2)C1c1cccs1` (stereo not shown): -3.27%; `CC1CCN(CCCNC(=O)c2nn(C)c3c2CSc2ccccc2-3)CC1`: 1.68%.
Next, `CCOc1ccc(Nc2nc(-c3sc(C)nc3C)cs2)cc1`: -2.48%; `Cc1nn(C)cc1CN(C)C(=O)CC12CC3CC(CC(C3)C1)C2`: 3.79%; `COc1cccc(-c2nnc3sc(NC(=O)c4ccc(F)cc4)nn23)c1`: -1.72%.
Regarding `CC(O)CSc1nc2c(c(=O)[nH]c(=O)n2C)n1Cc1ccccc1` (stereo not shown), the “% Inhibition @ 10 uM” value is 4.3%.
The same measure for `CC(C)c1nc2sc3c(NCCO)ncnc3c2c2c1COC(C)(C)C2`: 0.415%; for `O=C(c1nn2c(C(F)(F)F)cc(-c3ccccc3)nc2c1Br)N1CCCCC1`: -11%.
As for `COc1ccccc1/N=C1/C=C(O)CC(C)(C)C1`, the “% Inhibition @ 10 uM” value is recorded as -0.771%.
For `CC(C)n1c(=O)c2oc3ccccc3c2n(CC(=O)NCc2ccccc2)c1=O`, the “% Inhibition @ 10 uM” value was 1.41%.
Next, `COCCCN(Cc1ccco1)C(=O)c1cc2c(O)nc3ccc(C)cc3c2s1`: 1.72%.
The same measure for `COc1ccc(OC)c(NC(=O)COc2ccc(C)cc2Br)c1`: -1.38%; for `Cc1ccc(S(=O)(=O)Nc2cc(NS(=O)(=O)c3ccc(C)cc3)c3ccccc3c2O)cc1`: 6.94%; for `O=S(=O)(Nc1ccc(Cl)c(Cl)c1)c1cc(Cl)ccc1Cl`: 3.53%.
With `O=C(Nc1ccc(F)cc1)Nc1cccc(Br)c1`, the “% Inhibition @ 10 uM” value stood at 1.44%.
Next, `CCOCCCNC(=O)C1CCN(S(=O)(=O)N2CC(C)CC(C)C2)CC1` (stereo not shown): -2.99%; `Cc1cc(C)nc(NS(=O)(=O)c2ccc(NC(=O)c3ccc(Br)o3)cc2)n1`: 4.3%.
Next, `CCCN(CCC)c1ncnc2c1cnn2-c1ccc(C)cc1C`: 7.48%.
The same measure for `CCCCOc1ccc(C(=O)NCc2ccc3c(c2)OCO3)cc1`: 39.3%; for `COc1cccc(-c2nc(CS(=O)(=O)CC(=O)N3CC(C)CC(C)C3)c(C)o2)c1` (stereo not shown): 3.19%; for `O=C(COc1ccc(Br)cc1)N1CCN(CCCc2ccccc2)CC1`: 5.05%.
With `C=C(C)CC(Nc1ccccc1C)c1ccco1` (stereo not shown), the “% Inhibition @ 10 uM” value is given as -2.88%.
Next, `CC12CC(c3cc(Br)cc(Br)c3O1)C(C(=O)c1ccccc1)C(=O)N2` (stereo not shown): -3.1%; `COC(=O)c1ccccc1NC(c1ccccc1)c1ccc2cccnc2c1O` (stereo not shown): -1.69%.
Regarding `N#Cc1c(S)nc2c(c1-c1ccc([N+](=O)[O-])cc1)CCCC2`, the “% Inhibition @ 10 uM” value is 7.13%.
Next, `O=C(CSc1nc2c(sc3ccccc32)c(=O)n1CCO)NCc1ccco1`: 7.41%; `c1csc(-c2nn3c(Cn4cnc5ccccc54)nnc3s2)c1`: 2.89%.

These data come from publication PMC6919601, “Identification of Plasmodium dipeptidyl aminopeptidase allosteric inhibitors by high throughput screening” (PLoS ONE, 2019).
